According to the supplement of paper PMC3334620:
The full ranking holds about 33,000 sequences; the median of “E-score (-0.5 to 0.5)” is about -0.056, and the highest 2% start at about 0.38. The list shows a part of the results.

Molecular target: Stb4 (UniProt P50104)
Assay: PBM E-score (8-mer binding enrichment) (E-score (-0.5 to 0.5)); higher = stronger / more preferred TF binding; most listed sequences are background and not binding sites
Settings: protein concentration: 200 nM; construct: GST-DNA-binding domain
Procedure: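 Universal 'all 10-mer' protein binding microarrays (Agilent AMADID 015681) probed with GST-tagged S. cerevisiae TFs (full-length or DBD) made by in vitro transcription/translation (PURExpress), about 100-200 nM. Bound TF was detected with fluorescent anti-GST. Each ungapped 8-mer (which stands for itself and its reverse complement) is scored by the PBM enrichment score (E-score), a modified Wilcoxon-Mann-Whitney statistic from -0.5 to +0.5, computed with the Universal PBM Analysis Suite. Scale: above 0.35 generally sequence-specific binding.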

**Q.** With GACTTAGA as the sequence, how does the “PBM E-score” value read?
**A.** -0.223

**Q.** How did the “PBM E-score” value turn out when ACATTGAG was run?
**A.** -0.138

**Q.** TCCGCGGA was tested. Which “PBM E-score” value did it give?
**A.** 0.28

**Q.** For TTACATAA, which “PBM E-score” value is on record?
**A.** -0.0584

**Q.** For CACCCTTC, which “PBM E-score” value is on record?
**A.** -0.0623

**Q.** Which “PBM E-score” value does the source give for CAACAAAA here?
**A.** -0.0488

**Q.** CAGTTACG was tested. Which “PBM E-score” value did it give?
**A.** -0.177

**Q.** For TCCAGAAA, which “PBM E-score” value is on record?
**A.** -0.202

**Q.** How did the “PBM E-score” value turn out when ATGCTATC was run?
**A.** 0.0699

**Q.** CTAAGTGA was tested. Which “PBM E-score” value did it give?
**A.** 0.118

**Q.** How did the “PBM E-score” value turn out when ACTGTGAA was run?
**A.** -0.0173

**Q.** For GGTGAGAA, which “PBM E-score” value is on record?
**A.** 0.00583

**Q.** With CACTTGCA as the sequence, how does the “PBM E-score” value read?
**A.** -0.219

**Q.** How did the “PBM E-score” value turn out when CAAGGCGA was run?
**A.** -0.215

**Q.** ACTCGATC was tested. Which “PBM E-score” value did it give?
**A.** 0.046

**Q.** AGCCGCTG was tested. Which “PBM E-score” value did it give?
**A.** 0.0879

**Q.** How did the “PBM E-score” value turn out when CACCTTCA was run?
**A.** -0.00615

**Q.** For ACCCGTGA, which “PBM E-score” value is on record?
**A.** 0.204

**Q.** ACCACACC was tested. Which “PBM E-score” value did it give?
**A.** -0.0502

**Q.** For CTGCTAAC, which “PBM E-score” value is on record?
**A.** -0.0715

**Q.** For GGGACCCC, which “PBM E-score” value is on record?
**A.** 0.0316

**Q.** How did the “PBM E-score” value turn out when AAGGAGGT was run?
**A.** -0.0767

**Q.** With CTCCTCGC as the sequence, how does the “PBM E-score” value read?
**A.** -0.211

**Q.** For ATATGCGG, which “PBM E-score” value is on record?
**A.** 0.167

**Q.** How did the “PBM E-score” value turn out when AGCCGCTC was run?
**A.** 0.115

**Q.** How did the “PBM E-score” value turn out when ACGGAGTG was run?
**A.** 0.0683

**Q.** How did the “PBM E-score” value turn out when AGCGCCAT was run?
**A.** -0.271

**Q.** Which “PBM E-score” value does the source give for CAAGTACC here?
**A.** 0.153

**Q.** For AGGTCGGC, which “PBM E-score” value is on record?
**A.** 0.272

**Q.** How did the “PBM E-score” value turn out when AGATCCCT was run?
**A.** -0.226

**Q.** For AACTCTAG, which “PBM E-score” value is on record?
**A.** -0.198

**Q.** With AAAATGAG as the sequence, how does the “PBM E-score” value read?
**A.** -0.183

**Q.** AATGACGG was tested. Which “PBM E-score” value did it give?
**A.** 0.182

**Q.** How did the “PBM E-score” value turn out when CACAGGGG was run?
**A.** -0.193

**Q.** With CACTGTGC as the sequence, how does the “PBM E-score” value read?
**A.** 0.0556

**Q.** With GGGGAAGA as the sequence, how does the “PBM E-score” value read?
**A.** -0.186

**Q.** For ATCGCTAG, which “PBM E-score” value is on record?
**A.** -0.0921

**Q.** With TGCGAACA as the sequence, how does the “PBM E-score” value read?
**A.** -0.144

**Q.** CTTCCCTA was tested. Which “PBM E-score” value did it give?
**A.** -0.108

**Q.** With ACTCCAAA as the sequence, how does the “PBM E-score” value read?
**A.** -0.0951

**Q.** With ACCATCCC as the sequence, how does the “PBM E-score” value read?
**A.** 0.0842

**Q.** Which “PBM E-score” value does the source give for AGTTGCCA here?
**A.** -0.187

**Q.** Which “PBM E-score” value does the source give for CCTGTCGA here?
**A.** -0.167

**Q.** Which “PBM E-score” value does the source give for CTGGTAAC here?
**A.** 0.0673

**Q.** AAGGGGAA was tested. Which “PBM E-score” value did it give?
**A.** -0.275

**Q.** For GCACCCAC, which “PBM E-score” value is on record?
**A.** 0.0103

**Q.** Which “PBM E-score” value does the source give for ATAAGCGG here?
**A.** -0.0404

**Q.** With AATCTGGG as the sequence, how does the “PBM E-score” value read?
**A.** -0.148

**Q.** Which “PBM E-score” value does the source give for AACAGACT here?
**A.** -0.116

**Q.** With AGCTAGGA as the sequence, how does the “PBM E-score” value read?
**A.** -0.156

**Q.** How did the “PBM E-score” value turn out when ACTAGGAT was run?
**A.** -0.11

**Q.** With CCCGTACC as the sequence, how does the “PBM E-score” value read?
**A.** 0.245

**Q.** Which “PBM E-score” value does the source give for AAGACAGT here?
**A.** -0.0977

**Q.** How did the “PBM E-score” value turn out when AGTAGAAG was run?
**A.** -0.184

**Q.** ACAGGGGC was tested. Which “PBM E-score” value did it give?
**A.** -0.0122

**Q.** For CCCCGAAC, which “PBM E-score” value is on record?
**A.** 0.338

**Q.** How did the “PBM E-score” value turn out when CAGTGGTA was run?
**A.** -0.239

**Q.** For GATTCTCC, which “PBM E-score” value is on record?
**A.** 0.123

**Q.** With TATGTGGA as the sequence, how does the “PBM E-score” value read?
**A.** -0.0886

**Q.** How did the “PBM E-score” value turn out when ATGACCGG was run?
**A.** 0.101

**Q.** For AGTATTTC, which “PBM E-score” value is on record?
**A.** 0.224

**Q.** Which “PBM E-score” value does the source give for CCCCTGAC here?
**A.** -0.107

**Q.** With CCCTTCAA as the sequence, how does the “PBM E-score” value read?
**A.** -0.164

**Q.** AAACTCGT was tested. Which “PBM E-score” value did it give?
**A.** -0.228

**Q.** Which “PBM E-score” value does the source give for AAATCGGT here?
**A.** 0.162

**Q.** TAGGAGAA was tested. Which “PBM E-score” value did it give?
**A.** -0.235

**Q.** With ACTCGAGC as the sequence, how does the “PBM E-score” value read?
**A.** -0.133

**Q.** For CAGTTAGC, which “PBM E-score” value is on record?
**A.** -0.178

**Q.** Which “PBM E-score” value does the source give for AAACTGAG here?
**A.** 0.0319

**Q.** Which “PBM E-score” value does the source give for AACGATCA here?
**A.** -0.211

**Q.** Which “PBM E-score” value does the source give for GTGGCCGA here?
**A.** 0.159

**Q.** Which “PBM E-score” value does the source give for GTGGATTA here?
**A.** -0.0254

**Q.** For AGCAGGAC, which “PBM E-score” value is on record?
**A.** 0.00143

**Q.** With CACTCAGA as the sequence, how does the “PBM E-score” value read?
**A.** -0.239

**Q.** CCGCGGAC was tested. Which “PBM E-score” value did it give?
**A.** 0.219

**Q.** With ATTGGCCC as the sequence, how does the “PBM E-score” value read?
**A.** -0.178

**Q.** With AACTTAAA as the sequence, how does the “PBM E-score” value read?
**A.** -0.114

**Q.** For ATACTACA, which “PBM E-score” value is on record?
**A.** 0.089

**Q.** Which “PBM E-score” value does the source give for CACCAGCG here?
**A.** -0.158

**Q.** With AATGAGAG as the sequence, how does the “PBM E-score” value read?
**A.** -0.194

**Q.** For AACACTGT, which “PBM E-score” value is on record?
**A.** -0.105

**Q.** For AACGTTTC, which “PBM E-score” value is on record?
**A.** -0.0752

**Q.** For GGACGACA, which “PBM E-score” value is on record?
**A.** -0.091

**Q.** CGCAGAAA was tested. Which “PBM E-score” value did it give?
**A.** -0.137

**Q.** Which “PBM E-score” value does the source give for GGTAGTGA here?
**A.** -0.056

**Q.** How did the “PBM E-score” value turn out when CAGTAAAG was run?
**A.** -0.0435
